# Data taken from the BET-seq Pho4 binding data (Le et al. 2018).
# This is one part of the list. These are noisy estimates, calculated here from bound and input reads.
# Biological target: T1, Pho4 (S. cerevisiae) (UniProt P07270)
# T1 sequence: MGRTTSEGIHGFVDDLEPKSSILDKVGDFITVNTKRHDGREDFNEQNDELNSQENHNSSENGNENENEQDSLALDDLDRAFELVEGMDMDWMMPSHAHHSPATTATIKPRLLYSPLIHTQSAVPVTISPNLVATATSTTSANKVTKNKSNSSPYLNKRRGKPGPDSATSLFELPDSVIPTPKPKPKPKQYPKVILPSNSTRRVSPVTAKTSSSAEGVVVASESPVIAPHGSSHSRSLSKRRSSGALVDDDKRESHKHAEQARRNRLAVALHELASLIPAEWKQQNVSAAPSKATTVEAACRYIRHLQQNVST
# Assay: relative binding free energy (BET-seq); higher = weaker binding
# Conditions: reference: library average
row,Sequence,relative binding free energy
1,AAGGGCACGTGCGTGG,-0.17 kcal/mol
2,AGGCGCACGTGTGGTG,-0.03 kcal/mol
3,TGCGGCACGTGTAGTA,-0.05 kcal/mol
4,CGTCGCACGTGTGTGT,-0.13 kcal/mol
5,GTAATCACGTGTAAGG,0.23 kcal/mol
6,CGGTTCACGTGGTTCG,0.12 kcal/mol
7,TAGGCCACGTGCGGGT,-0.21 kcal/mol
8,CTGTTCACGTGTCGGT,0.24 kcal/mol
9,GTTGACACGTGGGTAA,-0.12 kcal/mol
10,AGATCCACGTGGGTTT,-0.02 kcal/mol
11,GGCATCACGTGTAGTA,0.18 kcal/mol
12,AGTAGCACGTGGAATT,0.08 kcal/mol
13,GTTATCACGTGGTAAT,0.06 kcal/mol
14,GGTGACACGTGTAGCA,0.11 kcal/mol
15,AATTTCACGTGATATT,0.26 kcal/mol
16,TAGGGCACGTGAGGGG,0.16 kcal/mol
17,GTATTCACGTGATGTA,0.38 kcal/mol
18,GCGGACACGTGGGGCT,-0.01 kcal/mol
19,TTGATCACGTGAGGGC,0.43 kcal/mol
20,TTTATCACGTGGTCTG,0.04 kcal/mol
21,TGGCTCACGTGTGGGG,0.21 kcal/mol
22,GAGTGCACGTGCGGGG,0.02 kcal/mol
23,GGTCGCACGTGCTGGG,0.02 kcal/mol
24,GGTATCACGTGTCTTT,0.28 kcal/mol
25,ATAGGCACGTGTTGTT,-0.09 kcal/mol
26,GGTGACACGTGGGTCG,-0.05 kcal/mol

row,Sequence,relative binding free energy
1,AATGACACGTGTAGTG,0 kcal/mol
2,GGTCGCACGTGGGTAA,-0.03 kcal/mol
3,GTCGTCACGTGTTTGC,0.12 kcal/mol
4,CTGGTCACGTGTATGC,0.11 kcal/mol
5,TAATACACGTGGTTTT,0.03 kcal/mol
6,CTCTGCACGTGTTTGG,-0.05 kcal/mol
7,TAAGGCACGTGTGCTA,-0.12 kcal/mol
8,GGTTGCACGTGGCGCG,0.04 kcal/mol
9,AAGTGCACGTGCGAGT,-0.04 kcal/mol
10,GTAGGCACGTGGTCAT,-0.22 kcal/mol
11,GTGTACACGTGGAAAG,0.13 kcal/mol
12,CGTGACACGTGGTCGG,-0.08 kcal/mol
13,GATTTCACGTGTGGCT,0.33 kcal/mol
14,GAGAGCACGTGCCGGG,0 kcal/mol
15,TGTCTCACGTGGTTTT,0.32 kcal/mol
16,TCAGTCACGTGTGTAA,0.06 kcal/mol
17,GGCATCACGTGGTGTA,0.1 kcal/mol
18,AGTTTCACGTGGTTAC,0.21 kcal/mol
19,GCATTCACGTGTGAGT,0.36 kcal/mol
20,AGGGGCACGTGGTAGG,-0.17 kcal/mol
21,GGCGCCACGTGACGGT,0.34 kcal/mol
22,GTTGCCACGTGTGAGT,0.09 kcal/mol
23,GGACTCACGTGTTTTT,0.42 kcal/mol
24,TTTAGCACGTGCTATG,-0.04 kcal/mol
25,GGTCTCACGTGTGTAA,0.19 kcal/mol
26,GGCGTCACGTGCATGG,-0.03 kcal/mol

row,Sequence,relative binding free energy
1,GGGGGCACGTGCGTAG,-0.21 kcal/mol
2,TGTTCCACGTGAGGGG,0.27 kcal/mol
3,ATGGACACGTGATTTT,0.26 kcal/mol
4,CTTATCACGTGTGAGT,0.18 kcal/mol
5,GTGGGCACGTGAATCT,0.16 kcal/mol
6,AGTGACACGTGGCGGT,-0.02 kcal/mol
7,TTAGGCACGTGTGCGT,-0.11 kcal/mol
8,GTGAACACGTGGTAAG,0.08 kcal/mol
9,TATTGCACGTGAGGGG,0.08 kcal/mol
10,ATGTTCACGTGGTGTT,0.25 kcal/mol
11,TGGGGCACGTGAGCGA,0.01 kcal/mol
12,CTGGGCACGTGATATG,-0.24 kcal/mol
13,TACTACACGTGGTTGG,0.03 kcal/mol
14,CGGCTCACGTGTGAGT,0.35 kcal/mol
15,AGGGGCACGTGTTTAG,-0.06 kcal/mol
16,ATTATCACGTGTTTGT,0.03 kcal/mol
17,GTACTCACGTGTTTGT,0.18 kcal/mol
18,TTAAGCACGTGCGTGG,-0.29 kcal/mol
19,TTTCACACGTGCGTGT,0.04 kcal/mol
20,GGGCTCACGTGTGCGA,0.3 kcal/mol
21,GTGGCCACGTGGATAT,0.12 kcal/mol
22,CTTGGCACGTGGTTAG,-0.2 kcal/mol
23,TGAGGCACGTGTTTTA,-0.16 kcal/mol
24,TTTGACACGTGTATGT,0.06 kcal/mol
25,GTTGGCACGTGGGACA,-0.21 kcal/mol
26,CATAGCACGTGGAGGG,-0.08 kcal/mol

row,Sequence,relative binding free energy
1,TATTGCACGTGTTATG,0.04 kcal/mol
2,TCTTCCACGTGGGTTG,-0.08 kcal/mol
3,GGCGTCACGTGGATTG,0.17 kcal/mol
4,TGTTGCACGTGACGCG,0.09 kcal/mol
5,ATATCCACGTGCGGGT,0.01 kcal/mol
6,GCGTTCACGTGGTGGC,0.35 kcal/mol
7,CAGGACACGTGAGTTT,0.39 kcal/mol
8,GTGCTCACGTGGTTCT,0.32 kcal/mol
9,AGGCTCACGTGATGGG,0.4 kcal/mol
10,CGTTGCACGTGGATGG,-0.06 kcal/mol
11,GTATACACGTGTGAGT,0.13 kcal/mol
12,GGTGGCACGTGTAGAC,-0.06 kcal/mol
13,AATGTCACGTGAAGCG,0.44 kcal/mol
14,ATAGTCACGTGGCAGG,-0.05 kcal/mol
15,GCGGGCACGTGGGGGT,-0.27 kcal/mol
16,AGGACCACGTGGTGGG,-0.11 kcal/mol
17,TCGCGCACGTGAGTGG,0.08 kcal/mol
18,GGACGCACGTGGATGG,-0.09 kcal/mol
19,GAGTTCACGTGTCTGT,0.36 kcal/mol
20,TTTTGCACGTGCATTC,0.09 kcal/mol
21,ACGTACACGTGGTGGG,0.07 kcal/mol
22,TGCTCCACGTGTTTGT,-0.07 kcal/mol
23,TATTTCACGTGGGTAA,0.28 kcal/mol
24,TTCAACACGTGTTTTA,0.11 kcal/mol
25,TTCGTCACGTGTGCAG,0.08 kcal/mol
26,TGTATCACGTGTAGGC,0.1 kcal/mol

row,Sequence,relative binding free energy
1,TTTTTCACGTGCCGTA,0.32 kcal/mol
2,GGTCTCACGTGGCGTA,0.21 kcal/mol
3,AATGTCACGTGATAAG,0.22 kcal/mol
4,GCAGGCACGTGGTCGT,-0.22 kcal/mol
5,GGGGTCACGTGTTTCA,0.15 kcal/mol
6,AAGGTCACGTGTGAGT,0.17 kcal/mol
7,GAGTGCACGTGTTGTC,0.07 kcal/mol
8,GGGGCCACGTGGGCCG,-0.13 kcal/mol
9,TTTGTCACGTGAATTC,0.31 kcal/mol
10,GCTGACACGTGTATGG,0.02 kcal/mol
11,TTCATCACGTGATTGG,0.37 kcal/mol
12,TAATGCACGTGTGGAG,-0.04 kcal/mol
13,GTGGACACGTGGATGC,0.2 kcal/mol
14,CGGGTCACGTGGGGCC,0.08 kcal/mol
15,AATTGCACGTGAGGTG,0.24 kcal/mol
16,GGCGTCACGTGTTGAG,0.2 kcal/mol
17,TGCTTCACGTGGGAAG,0.15 kcal/mol
18,GATGACACGTGAGGGT,0.23 kcal/mol
19,GTGAACACGTGTATGG,0.05 kcal/mol
20,TAGGACACGTGGTGCT,-0.05 kcal/mol
21,TAAAGCACGTGGGCTG,-0.18 kcal/mol
22,GCGTACACGTGGGATG,0.07 kcal/mol
23,CGTGTCACGTGCGAGT,-0.03 kcal/mol
24,TGAGACACGTGGAGTT,0 kcal/mol
25,AGGACCACGTGTAGGT,-0.03 kcal/mol
26,TGATGCACGTGTTCAG,0.04 kcal/mol

row,Sequence,relative binding free energy
1,TAATTCACGTGGTCAT,0.35 kcal/mol
2,GTTTTCACGTGTTATG,0.37 kcal/mol
3,GAAGGCACGTGGGCTG,-0.15 kcal/mol
4,GTAAACACGTGAGTTA,0.23 kcal/mol
5,AATTGCACGTGGAGAG,-0.04 kcal/mol
6,GTTGGCACGTGACCGG,0 kcal/mol
7,TTGAACACGTGGAGTG,-0.04 kcal/mol
8,TTCCGCACGTGGTTTG,0.01 kcal/mol
9,TGTGTCACGTGTTACT,0.12 kcal/mol
10,GGAGGCACGTGAGGCA,0.23 kcal/mol
11,TGTTTCACGTGGCTGA,0.17 kcal/mol
12,GTAAGCACGTGAATTT,0.18 kcal/mol
13,ATAGTCACGTGTTAAG,0.08 kcal/mol
14,ATATACACGTGTAGGA,-0.1 kcal/mol
15,TGCTTCACGTGGGCTG,0.08 kcal/mol
16,TTTTACACGTGAAGTT,0.37 kcal/mol
17,AGTTCCACGTGGAGGT,0.06 kcal/mol
18,TGCCACACGTGTTGGG,-0.02 kcal/mol
19,AGGTGCACGTGGAACG,-0.14 kcal/mol
20,TGGCTCACGTGCGGGG,0.04 kcal/mol
21,TTAGACACGTGTTACG,0.04 kcal/mol
22,ACGTTCACGTGGGGCG,0.08 kcal/mol
23,AAGGTCACGTGTGTCG,0.02 kcal/mol
24,TTAAGCACGTGCCTGG,-0.01 kcal/mol
25,TTGGTCACGTGAGGGT,0.26 kcal/mol
26,TAAGACACGTGGTTGA,-0.11 kcal/mol

row,Sequence,relative binding free energy
1,GCTCGCACGTGCGGGG,-0.16 kcal/mol
2,CGTTACACGTGGTAAG,0.06 kcal/mol
3,GGAGACACGTGGATGG,0.06 kcal/mol
4,TTTGCCACGTGTTGGT,-0.07 kcal/mol
5,GATGCCACGTGGGTGG,-0.11 kcal/mol
6,GATGGCACGTGGCAGG,-0.15 kcal/mol
7,TATTTCACGTGTATTC,0.26 kcal/mol
8,TGATTCACGTGTATAG,0.27 kcal/mol
9,CTATTCACGTGGGTGT,0.21 kcal/mol
10,GATGTCACGTGTGGTC,0.16 kcal/mol
11,TTGTCCACGTGGGAGA,-0.07 kcal/mol
12,GGAGTCACGTGGTCTT,0.05 kcal/mol
13,AATTGCACGTGTGAGC,0.24 kcal/mol
14,TTAGGCACGTGGCAGG,-0.28 kcal/mol
15,TGGGGCACGTGTTTGT,-0.02 kcal/mol
16,ATTAACACGTGTCTTT,-0.09 kcal/mol
17,GACGGCACGTGGCGGT,-0.17 kcal/mol
18,GTCGTCACGTGTTGAG,0.12 kcal/mol
19,TGGGGCACGTGAGGCG,0.14 kcal/mol
20,TTTTGCACGTGATCTG,0.08 kcal/mol
21,ATTAACACGTGGGAGT,-0.07 kcal/mol
22,TGGGACACGTGTATTG,0.05 kcal/mol
23,ATGTTCACGTGATGGC,0.34 kcal/mol
24,CATTTCACGTGTGATG,0.3 kcal/mol
25,ATATTCACGTGTGATG,0.37 kcal/mol
26,GGTTTCACGTGATGCT,0.32 kcal/mol

row,Sequence,relative binding free energy
1,GGGTGCACGTGTTTCG,-0.03 kcal/mol
2,TTGGTCACGTGATAGG,0.16 kcal/mol
3,CGTAGCACGTGGGGCT,-0.28 kcal/mol
4,GGGTCCACGTGATTGT,0.24 kcal/mol
5,CAAGGCACGTGGTGGG,-0.18 kcal/mol
6,TTAGTCACGTGTCCGG,0.14 kcal/mol
7,TTCGGCACGTGTGATA,0.1 kcal/mol
8,TAACGCACGTGTTATT,-0.02 kcal/mol
9,GGAGGCACGTGTTGGT,-0.05 kcal/mol
10,TGTTGCACGTGACGGG,0.01 kcal/mol
11,GTTTGCACGTGGGTTG,-0.02 kcal/mol
12,TTCGTCACGTGTATGA,0.04 kcal/mol
13,ATCGGCACGTGGGGAT,-0.13 kcal/mol
14,AGCAGCACGTGATGTG,0 kcal/mol
15,TTTTTCACGTGGTGGG,0.35 kcal/mol
16,TTTTGCACGTGTGGTT,0.09 kcal/mol
17,AATGGCACGTGAAAAG,0.14 kcal/mol
18,TGTGCCACGTGAGTCG,0.12 kcal/mol
19,GGCTACACGTGGTGAG,0.13 kcal/mol
20,GATAGCACGTGTGTCG,0.05 kcal/mol
21,TGTATCACGTGGGGAC,0.05 kcal/mol
22,AGATTCACGTGTTTGG,0.25 kcal/mol
23,AGTGGCACGTGGGAGT,-0.2 kcal/mol
24,TCGAGCACGTGAGGGT,0.12 kcal/mol
25,TCGGGCACGTGACAGG,0.01 kcal/mol
26,TTGCACACGTGTGTAT,0.02 kcal/mol

row,Sequence,relative binding free energy
1,CGGGGCACGTGACGGC,0.02 kcal/mol
2,ACTTGCACGTGGATGT,0.07 kcal/mol
3,GCTGGCACGTGGTGCA,-0.21 kcal/mol
4,CGGCACACGTGTGTGG,0.03 kcal/mol
5,TCGTACACGTGGATGG,0.05 kcal/mol
6,TTTATCACGTGGGGAT,0.02 kcal/mol
7,ATTGACACGTGTAGTC,0.15 kcal/mol
8,ATGCTCACGTGTCGGT,0.22 kcal/mol
9,ATATTCACGTGAGTTA,0.26 kcal/mol
10,TCTGTCACGTGGGAAG,0.08 kcal/mol
11,AGAGTCACGTGTTCGG,-0.06 kcal/mol
12,TGTGGCACGTGCGAGG,-0.04 kcal/mol
13,GGGTTCACGTGTAAGC,0.48 kcal/mol
14,TAGCACACGTGTCGTG,0.06 kcal/mol
15,GAAAGCACGTGCTGGG,-0.02 kcal/mol
16,CTGTGCACGTGGTGTA,-0.23 kcal/mol
17,ATGGGCACGTGCTTAT,-0.16 kcal/mol
18,GTTTACACGTGGATGT,0.16 kcal/mol
19,AGTGACACGTGAATAG,0.31 kcal/mol
20,TAGTGCACGTGGATAT,0.01 kcal/mol
21,GAAGTCACGTGGGGCG,0 kcal/mol
22,CGGGTCACGTGTGATA,0.26 kcal/mol
